Measurements: PubChem BioAssay AID488969 (Vanderbilt High Throughput Screening Facility, 2010)
Whole data set: some 110,000 compounds, median “z-score” near -0.1, cut for the highest 2% near 2. This is one part of the list. The source made the active and inactive calls.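 The calls were made as follows: active = z-score in the third read window above 3 or below -3; inactive = the rest.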

target: Metabotropic glutamate receptor 8 (Rattus norvegicus) (UniProt P70579); experiment: rat mGluR8 modulators via GIRK flux, primary screen, cell-based, thallium flux, HTS (AID 488969); conditions: HEK293 rat mGluR8, GIRK (G protein-gated inwardly rectifying potassium channel) thallium flux, FluoZin2; at 10 µM; stronger effect = higher value; submaximal glutamate (EC20) added with thallium
Chain of UniProt P70579 (P70579 whole entry, looked up): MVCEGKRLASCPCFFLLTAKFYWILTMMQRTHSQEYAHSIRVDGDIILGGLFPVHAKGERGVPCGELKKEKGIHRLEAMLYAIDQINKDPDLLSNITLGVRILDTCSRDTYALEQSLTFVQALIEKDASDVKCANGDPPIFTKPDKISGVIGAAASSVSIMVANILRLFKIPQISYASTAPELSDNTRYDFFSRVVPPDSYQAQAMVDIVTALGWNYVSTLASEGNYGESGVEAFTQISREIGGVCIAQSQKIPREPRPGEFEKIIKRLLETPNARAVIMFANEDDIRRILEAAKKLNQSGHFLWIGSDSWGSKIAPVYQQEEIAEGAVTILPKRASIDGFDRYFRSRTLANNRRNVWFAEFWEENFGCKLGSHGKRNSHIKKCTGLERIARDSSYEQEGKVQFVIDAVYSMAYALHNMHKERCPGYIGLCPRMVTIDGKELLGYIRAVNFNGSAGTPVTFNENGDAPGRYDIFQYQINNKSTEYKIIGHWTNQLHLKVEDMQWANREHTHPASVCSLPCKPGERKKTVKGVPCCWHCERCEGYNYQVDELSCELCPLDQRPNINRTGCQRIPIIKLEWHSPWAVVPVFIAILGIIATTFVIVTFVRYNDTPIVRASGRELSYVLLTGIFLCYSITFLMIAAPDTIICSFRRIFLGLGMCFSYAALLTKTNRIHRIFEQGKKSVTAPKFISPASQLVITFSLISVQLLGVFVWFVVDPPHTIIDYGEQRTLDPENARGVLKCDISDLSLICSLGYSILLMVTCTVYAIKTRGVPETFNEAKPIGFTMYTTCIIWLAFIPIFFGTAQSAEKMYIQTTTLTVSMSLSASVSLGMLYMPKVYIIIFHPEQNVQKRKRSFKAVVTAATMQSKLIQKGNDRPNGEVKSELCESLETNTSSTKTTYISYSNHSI

SMILES | z-score
Cc1cc(NC(=O)C2CCCCC2)nc2c1c(=O)oc1ccccc12 | -0.26
Cc1ccc(Nc2nnc(-c3ccc(N4CCOCC4)c([N+](=O)[O-])c3)c3ccccc23)cc1 | -2.12
O=C(OCC(CO)OC(CO)n1ccc(=O)[nH]c1=O)c1ccccc1 (stereo unspecified) | 0.279
CCn1nc(C)c(/C=N/NC(=O)c2ccc3c(c2)c(C)c(C)n3Cc2ccccc2)c1C | -0.331
CC(=O)c1ccc(N2CCN(C(C)C(=O)NC3CCCc4ccccc43)CC2)cc1 (stereo unspecified) | -0.818
Cc1ccc(CNC(=O)CSc2c3c(nc4cc(Cl)ccc24)CCCC3)o1 | -0.496
Cc1cccc(-c2noc(-c3cc4ccccc4oc3=O)n2)c1 | 0.602
CN1CCN(S(=O)(=O)c2ccc(C(=O)Nc3ccccc3)cc2)CC1 | -0.612
CSc1ccccc1NC(=O)c1cccs1 | -0.371
O=C(Nc1ccc2c(c1)OCO2)c1noc2c1CCCCC2 | 0.597
C=CCn1c(SCC(=O)Nc2ccc3c(c2)OCCO3)nnc1-c1ccco1 | 0.179
NC(Cc1ccc(O)c([N+](=O)[O-])c1)C(=O)O (stereo unspecified) | -0.0752
COC(=O)C1C(=O)C2=C(CC1C)NC(C)=C(C(=O)OC1CCCC1)C2c1ccc(N(C)C)cc1 (stereo unspecified) | -0.651
CC(=O)Nc1ccc(NC(=O)C(C)n2nc([N+](=O)[O-])c(Br)c2C)cc1 (stereo unspecified) | -0.151
COc1ccc(NC(=O)N2CCCC(C(=O)NC(C)C)C2)cc1 (stereo unspecified) | 0.156
CC(=O)CSc1nnc(-c2ccncc2)n1C | 0.1
CCOC(=O)c1[nH]nc(-c2c(O)cc(C)cc2O)c1-c1csc(C)n1 | -0.402
O=c1oc2ccccc2cc1-c1csc(Nc2nc3c(F)cccc3s2)n1 | 0.848
CCOc1c(Br)cc(/C=C2/SC(=O)N(CC(=O)N3CCCC3)C2=O)cc1OC | -0.0467
O=C(CN1C(=O)NC(Cc2ccccc2)C1=O)Nc1ccccc1 (stereo unspecified) | 0.158
COc1ccccc1/C=N/NC(=O)c1cccc(OC(F)(F)C(F)F)c1 | -0.0658
COc1cccc(C(=O)Nc2ccccc2N2CCOCC2)c1 | 0.0601
COc1cc(/C=C2\C(=O)N(C)C(=S)N2C)ccc1O | -0.152

SMILES | z-score
CC(C)CC(=O)Nc1cccc(NC(=O)CC(C)C)n1 | -0.0574
CSc1nnc(-c2ccccc2)n1C | -0.153
N=c1sccn1CC(=O)Nc1ccc(Cl)c(S(=O)(=O)N2CCOCC2)c1 | 0.131
COc1ccccc1C(=O)Nc1ccccc1N1CCN(S(C)(=O)=O)CC1 | 0.336
COC(=O)Cn1cc(C(=O)OC)c2ccccc21 | 0.258
CC/C(=N\NC(=O)Nc1ccccc1)c1ccccc1 | -0.238
Cn1ccnc1SCc1cc(=O)[nH]c2ccccc12 | -0.0852
CCOC(=O)Cc1c(C)[nH]c(=S)[nH]c1=O | -0.0991
COc1ccc(CNC(=S)Nc2ccccc2C)cc1 | -0.145
O=C(COc1ccc(Cl)cc1)N1CCN(S(=O)(=O)c2ccccc2)CC1 | 0.0293
CCn1c(O)c(/C=C2\C=Nc3ccccc32)sc1=Nc1ccccc1 | -0.146
Cc1sc2nc3n(c(=O)c2c1C)CCCCC3 | -0.206
COc1nc(-c2ccccc2)ccc1-c1noc(C)n1 | 0.0211
CCC(C)/C(C)=N/NC(=O)C1COc2ccccc2O1 (stereo unspecified) | 0.0736
CCCN(C(=O)CSc1cc(-c2ccccc2)c2ccc(OC)cc2n1)C1CCS(=O)(=O)C1 (stereo unspecified) | -0.403
S=c1[nH]nc(CCc2ccccc2)n1Cc1ccccc1 | -0.0986
O=C(C(Cl)Cl)N1CCN(c2ccccn2)CC1 | 0.168
Clc1ccc(-c2cc(-c3nnc4n3CCCCC4)c3ccccc3n2)cc1 | 2.08
COc1ccc(N(C(C)=O)S(=O)(=O)c2cccc3cccnc23)cc1 | -0.162
N#Cc1c(N)nc2c(c1N)CC(=O)N2c1ccccc1-c1ccccc1 | 0.0698
Cc1ccccc1OCC(=O)N/N=C/c1cc2ccccc2nc1Cl | -0.172
CCCCNC(=O)C1CCCN(S(=O)(=O)c2ccc(-n3cnnn3)cc2)C1 (stereo unspecified) | -0.378
O=C(CCCCCn1c(SCc2ccncc2)nc2ccccc2c1=O)NCc1ccco1 | -0.274

SMILES | z-score
COc1ccc(-n2c(SC)nnc2-c2c[nH]c3ccccc23)cc1 | -0.388
CCOC(=O)/C(C(=O)Nc1ccc(Br)cc1)=C1/NC(C)(C)Cc2ccccc21 | -0.363
COc1ccc(Nc2ncc(C(=O)N3CCC(C(N)=O)CC3)c3ccccc23)cc1 | -0.199
CCOc1cc(C)c(S(=O)(=O)Nc2ccc(F)cc2)cc1C | 0.564
COc1ccc(OC)c(CN2CCCC(C(=O)N3CCCCC3)C2)c1 (stereo unspecified) | 0.841
CC(C)C(=O)Nc1ncc2c(n1)CC(c1cccs1)CC2=O (stereo unspecified) | -0.364
O=C(N/N=C/c1ccc(O)cc1)c1cc[n+](Cc2ccccc2)cc1 | -0.114
O=C(COc1cccnc1[N+](=O)[O-])N1CCN(S(=O)(=O)c2ccccc2)CC1 | -0.0792
Cc1ccc(NC(=O)CCC(=O)NNC(=O)C(c2ccccc2)c2ccccc2)c(C)c1 | 0.0309
COc1ccc(C2NC(=O)CS2)cc1 (stereo unspecified) | 0.0416
O=C(Nc1nnc(CCS(=O)(=O)c2ccc(Br)cc2)s1)c1ccc([N+](=O)[O-])cc1 | -0.105
Cn1c(Cn2cnc(Cl)c2Cl)nc2ccccc21 | 0.488
COc1cc2c(C(=O)NCCCOC(C)C)cn(CC(C)C)c(=O)c2cc1OC | -0.641
COc1ccc(-n2ncc(N(C)n3cccc3)c(Cl)c2=O)cc1 | 0.184
O=C(CN1C(=O)CC(c2ccccc2)=Nc2ccccc21)NC1CCCCC1 | 0.0429
Cc1ccc(S(=O)(=O)N(C)C)cc1NC(=O)CN1C(=O)NC2(CCCc3ccccc32)C1=O (stereo unspecified) | -0.342
COc1ccc2cc(S(=O)(=O)N3CCOCC3)ccc2c1 | 0.596
CNc1oc(C)nc1S(=O)(=O)c1ccc(C)cc1 | -0.153
Cc1ccc(OCCCNC2CCCC2)cc1 | -0.0441
O=S(=O)(c1cccc(S(=O)(=O)N2CCOCC2)c1)N1CCCCC1 | -0.241
COc1ccc(CCNC(=O)CSc2nc(-c3ccco3)cc(C(F)(F)F)n2)cc1OC | 1.06
Cc1nc(SCC(=O)NCc2ccco2)c2c3c(sc2n1)CCCC3 | -0.181
CCCCCn1c(SCCOCC)nc2c1c(=O)[nH]c(=O)n2C | -0.233

SMILES | z-score
CN(C)CCCNCCCNC(=O)c1ccccn1 | -0.205
CCCCN(CCCC)S(=O)(=O)c1ccc(SCC(=O)OCC)c([N+](=O)[O-])c1 | -0.868
Cc1cc(C)nc(NC2=NCCN2C(=O)Nc2ccc(Cl)c(Cl)c2)n1 | -0.403
O=C(CSc1nc(-c2ccccc2)cs1)NC(=O)NCc1ccco1 | -0.338
COc1ccccc1C1CN(c2ccc(F)cc2F)N=C1c1cccs1 (stereo unspecified) | -0.0531
CN(C)S(=O)(=O)c1ccc2nnn(OCC(=O)NC34CC5CC(CC(C5)C3)C4)c2c1 | 0.0619
Cc1cc(-c2ccccc2)nc(Oc2cccc(C(F)(F)F)c2)c1S(C)(=O)=O | 0.172
O=C(/C=C/Nc1ccc(F)cc1)c1ccc(Oc2ncccn2)cc1 | 1.67
COC(CNC(=O)c1ccc(N2CCC3(CC2)OCCO3)c([N+](=O)[O-])c1)OC | 0.0204
Cc1ccc(-n2[nH]c3c4c(ccc3c2=O)C(=O)c2ccccc2C4=O)cc1 | 0.134
c1ccc(CSc2ccc(-c3cccs3)nn2)cc1 | -0.307
CC(=O)NNc1cc(=O)c2c(=O)n(C)c(=O)n(C)c2[nH]1 | -0.373
CCCC(=O)NCCc1cc2c(C)ccc(C)c2[nH]c1=O | -0.178
COc1ccc(C(C(=O)OC(C)CN(C)C)c2ccccc2)cc1 (stereo unspecified) | 0.0462
CC(C)COC(=O)c1ccccc1N1C(=O)C2C3CCC(C3)C2C1=O (stereo unspecified) | -0.448
COc1ccc(CCNC(=O)c2cnn3c(C(F)F)cc(C)nc23)cc1OC | -0.247
COc1ccc(C)cc1-n1nnnc1SCn1nnc2ccccc2c1=O | -0.188
CCc1ccc(/C=C/C(=O)c2cc(Br)ccc(=O)c2O)cc1 | 2.17
CC(C)(C)NC(=O)NC(=O)Cn1ccsc1=N | 0.0647
Cc1cccc(C)c1-n1c(SCC(=O)NCc2ccco2)nc2ccccc2c1=O | -0.305
O=C(O)c1ccc(NC(=O)C2(c3ccccc3)CCOCC2)cc1 | -0.264
Cc1ccc2[nH]c(=O)c(C3=NN(C(=O)CCC(=O)O)C(c4cccs4)C3)c(-c3ccccc3)c2c1 (stereo unspecified) | -0.213
Cc1ccc2nc(NC(=O)c3ccc(NS(=O)(=O)c4cccs4)cc3)sc2c1 | 0.062

SMILES | z-score
Cc1nc2cc(C(=O)OCC(=O)NC3CCS(=O)(=O)C3)ccc2n1-c1ccccc1 (stereo unspecified) | -0.113
Cc1c(C#N)c(NC(=O)c2cccc(Cl)c2)n(Cc2ccccc2)c1C | -0.0717
CCCSc1nc(C)cc(C)c1S(=O)(=O)c1ccccc1C | -0.378
O=C(Nc1ccccn1)c1cc(-n2cnnc2)ccc1Cl | 0.123
Cc1ccccc1NC(=O)N1CCCC1C(=O)NCc1cccs1 (stereo unspecified) | -0.229
O=C(CN1C2CCCC1CC(NC(=O)c1ccccc1)C2)Nc1nccs1 (stereo unspecified) | -0.0904
CC1=NN(C(N)=S)C(=O)C1N=Nc1ccccc1C (stereo unspecified) | 2.97
COc1ccc(C(=O)Nc2ccc(S(=O)(=O)Nc3nccc(C)n3)cc2)cc1OC | -0.481
O=C(NNS(=O)(=O)c1ccc(F)c(Cl)c1)c1cccc(S(=O)(=O)N2CCOCC2)c1 | -0.0447
Cn1c(=O)c2c(ncn2CC(O)CNc2ccc(Cl)cc2)n(C)c1=O (stereo unspecified) | 1.26
COc1cccc(-n2c(SCC(=O)O)nnc2-c2cccnc2)c1 | -0.336
CC(=O)c1c(N2CCN(c3cccc(Cl)c3)CC2)nc(=S)n(-c2ccccc2)c1C | 0.246
CCCc1cc(-c2n[nH]c(=S)n2CC(C)C)cs1 | active: 4.16
O=C(COC(=O)c1ccccc1F)c1ccc(-n2nncc2-c2ccco2)cc1 | -0.18
CC/C(O)=C1\C(=O)CC(c2ccccc2)CC1=NC(C)C (stereo unspecified) | -0.434
Cc1ccc(C(=O)Nc2ccc(O)c(C(=O)O)c2)o1 | -0.359
CC(NS(=O)(=O)c1ccccc1)C(=O)NCc1ccco1 (stereo unspecified) | -0.316
CNC(=S)N/N=C(\C)c1cccc([N+](=O)[O-])c1 | -0.339
C=CCn1c(P(=O)(O)c2ccccc2)nc2ccccc21 | -0.205
